Measurements published in the supplement of paper PMC10369915.
This is one part of the list. Cut-off read from the data, not from the text of the source: active = 3.2 or more and inactive = the rest. Only a few entries rise above the background.

Assays:
Experiment in all cases: enrichment score (SH2-bound / input frequency) (ratio); bacterial display of known human phosphotyrosine sites (pTyr-Var adds point mutants) read by sequencing; higher = stronger binding; tyrosines were phosphorylated by kinases first
Details in all cases: peptide library: Human pTyr
SHP2 C-SH2 domain E139D = molecular target: SHP2 C-SH2 domain E139D
[1] = molecular target: SHP2 C-SH2 domain wild-type
SHP2 N-SH2 domain L43F = molecular target: SHP2 N-SH2 domain L43F
SHP2 N-SH2 domain T42A = molecular target: SHP2 N-SH2 domain T42A
SHP2 N-SH2 domain T52S = molecular target: SHP2 N-SH2 domain T52S
[2] = molecular target: SHP2 N-SH2 domain wild-type

Measured: enrichment score
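Note: displayed peptides selected on beads carrying the immobilized SH2 domain, with library peptides lacking any tyrosine serving as negative controls.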

SNCTNELYMMMRDCW [FGFR1_HUMAN_730]
inactive: SHP2 C-SH2 domain E139D 0.872 | [1] 0.779 | SHP2 N-SH2 domain L43F 0.677 | SHP2 N-SH2 domain T42A 0.727 | SHP2 N-SH2 domain T52S 0.881 | [2] 0.831

AGDSLSYYHSPADSF [FOS_HUMAN_30]
inactive: SHP2 C-SH2 domain E139D 0.646 | [1] 0.553 | SHP2 N-SH2 domain L43F 0.531 | SHP2 N-SH2 domain T42A 0.453 | SHP2 N-SH2 domain T52S 0.582 | [2] 0.682

FHRNDSIYEELQKHD [FHIT_HUMAN_114]
inactive: SHP2 C-SH2 domain E139D 0.846 | [1] 0.889 | SHP2 N-SH2 domain L43F 1.07 | SHP2 N-SH2 domain T42A 0.726 | SHP2 N-SH2 domain T52S 0.893 | [2] 1.02

DIHHIDAYKKTTNGR [FGFR1_HUMAN_654_YA]
inactive: SHP2 C-SH2 domain E139D 1.09 | [1] 0.786 | SHP2 N-SH2 domain L43F 1.07 | SHP2 N-SH2 domain T42A 0.722 | SHP2 N-SH2 domain T52S 0.914 | [2] 0.958

SSLPEGAYEEAVPLS [AFAP1_HUMAN_94_YA]
inactive: SHP2 C-SH2 domain E139D 0.613 | [1] 0.565 | SHP2 N-SH2 domain L43F 0.566 | SHP2 N-SH2 domain T42A 0.661 | SHP2 N-SH2 domain T52S 0.796 | [2] 0.67

CRNEEGKYGAVLRSA [FYB_HUMAN_755_YA]
inactive: SHP2 C-SH2 domain E139D 1.27 | [1] 1.13 | SHP2 N-SH2 domain L43F 0.947 | SHP2 N-SH2 domain T42A 0.853 | SHP2 N-SH2 domain T52S 1.11 | [2] 1.02

FREVRNEYGSRIGGN [FUBP1_HUMAN_268]
inactive: SHP2 C-SH2 domain E139D 0.853 | [1] 0.727 | SHP2 N-SH2 domain L43F 0.653 | SHP2 N-SH2 domain T42A 0.633 | SHP2 N-SH2 domain T52S 1.06 | [2] 0.8

TSSLPEGYAEEAVPL [AFAP1_HUMAN_93_YA]
inactive: SHP2 C-SH2 domain E139D 0.742 | [1] 0.725 | SHP2 N-SH2 domain L43F 0.657 | SHP2 N-SH2 domain T42A 0.731 | SHP2 N-SH2 domain T52S 0.584 | [2] 0.883

EGDEVEVYSRANEQE [FXR2_HUMAN_78]
inactive: SHP2 C-SH2 domain E139D 1.07 | [1] 1.12 | SHP2 N-SH2 domain L43F 0.948 | SHP2 N-SH2 domain T42A 1.33 | SHP2 N-SH2 domain T52S 1.16 | [2] 1.22

EDLADKPYTFEDYDV [FXN_HUMAN_118]
inactive: SHP2 C-SH2 domain E139D 1.35 | [1] 1.2 | SHP2 N-SH2 domain L43F 1.39 | SHP2 N-SH2 domain T42A 1.32 | SHP2 N-SH2 domain T52S 1.73 | [2] 1.56

DIHDDQDYLHSLGKA [FLOT1_HUMAN_160]
inactive: SHP2 C-SH2 domain E139D 0.721 | [1] 0.635 | SHP2 N-SH2 domain L43F 0.778 | SHP2 N-SH2 domain T42A 0.73 | SHP2 N-SH2 domain T52S 0.644 | [2] 0.731

VSECPHTYQNRRPFS [FLT3_HUMAN_969]
inactive: SHP2 C-SH2 domain E139D 1.31 | [1] 1.42 | SHP2 N-SH2 domain L43F 1.4 | SHP2 N-SH2 domain T42A 1.65 | SHP2 N-SH2 domain T52S 1.42 | [2] 1.28

TDPTPQHYPSFGVTS [FYN_HUMAN_39]
inactive: SHP2 C-SH2 domain E139D 0.565 | [1] 0.543 | SHP2 N-SH2 domain L43F 0.394 | SHP2 N-SH2 domain T42A 0.6 | SHP2 N-SH2 domain T52S 0.477 | [2] 1.1

DIADGCIYDNDGGGG [FYB_HUMAN_780]
inactive: SHP2 C-SH2 domain E139D 0.93 | [1] 0.955 | SHP2 N-SH2 domain L43F 0.739 | SHP2 N-SH2 domain T42A 0.858 | SHP2 N-SH2 domain T52S 0.86 | [2] 1.16

NQSSGYRYGTDPTPQ [FYN_HUMAN_30]
inactive: SHP2 C-SH2 domain E139D 0.582 | [1] 0.504 | SHP2 N-SH2 domain L43F 0.645 | SHP2 N-SH2 domain T42A 0.562 | SHP2 N-SH2 domain T52S 0.565 | [2] 0.518

EPGSEGDYMVLPRRT [AGRB2_HUMAN_1351]
inactive: SHP2 C-SH2 domain E139D 1.1 | [1] 0.59 | SHP2 N-SH2 domain L43F 0.543 | SHP2 N-SH2 domain T42A 0.76 | SHP2 N-SH2 domain T52S 0.655 | [2] 0.729

DINNIDAYKKTTNGR [FGFR2_HUMAN_657_YA]
inactive: SHP2 C-SH2 domain E139D 0.898 | [1] 0.858 | SHP2 N-SH2 domain L43F 1.12 | SHP2 N-SH2 domain T42A 0.998 | SHP2 N-SH2 domain T52S 0.841 | [2] 0.899

DVYDKVDYLSSLGKT [FLOT2_HUMAN_163]
inactive: SHP2 C-SH2 domain E139D 0.627 | [1] 0.483 | SHP2 N-SH2 domain L43F 0.606 | SHP2 N-SH2 domain T42A 0.488 | SHP2 N-SH2 domain T52S 0.559 | [2] 0.805

SSSSDEEYIYMNKVT [AFAP1L2_HUMAN_54]
inactive: SHP2 C-SH2 domain E139D 0.76 | [1] 0.636 | SHP2 N-SH2 domain L43F 0.694 | SHP2 N-SH2 domain T42A 0.654 | SHP2 N-SH2 domain T52S 0.633 | [2] 0.471

KGEHSIVYLKPSYAF [FKBP4_HUMAN_220]
inactive: SHP2 C-SH2 domain E139D 1.11 | [1] 1.52 | SHP2 N-SH2 domain L43F 1.66 | SHP2 N-SH2 domain T42A 2.85 | SHP2 N-SH2 domain T52S 1.54 | [2] 1.31

TLTTNEEYLDLSQPL [FGFR2_HUMAN_769]
inactive: SHP2 C-SH2 domain E139D 0.783 | [1] 0.691 | SHP2 N-SH2 domain L43F 0.754 | SHP2 N-SH2 domain T42A 0.662 | SHP2 N-SH2 domain T52S 0.529 | [2] 0.805

FSGFNADYEASSSRC [FOS_HUMAN_10]
inactive: SHP2 C-SH2 domain E139D 1.1 | [1] 0.91 | SHP2 N-SH2 domain L43F 0.911 | SHP2 N-SH2 domain T42A 0.862 | SHP2 N-SH2 domain T52S 0.949 | [2] 0.792

SSDNEAFYVDFREAE [FLT3_HUMAN_591_YA]
inactive: SHP2 C-SH2 domain E139D 0.955 | [1] 0.863 | SHP2 N-SH2 domain L43F 0.926 | SHP2 N-SH2 domain T42A 0.822 | SHP2 N-SH2 domain T52S 0.892 | [2] 0.966

AGDSLSAYHSPADSF [FOS_HUMAN_30_YA]
inactive: SHP2 C-SH2 domain E139D 0.469 | [1] 0.42 | SHP2 N-SH2 domain L43F 0.512 | SHP2 N-SH2 domain T42A 0.474 | SHP2 N-SH2 domain T52S 0.506 | [2] 0.441

IKTGAPQYGSAGTAP [FIP1L1_HUMAN_110_YA]
inactive: SHP2 C-SH2 domain E139D 0.779 | [1] 0.716 | SHP2 N-SH2 domain L43F 0.611 | SHP2 N-SH2 domain T42A 0.762 | SHP2 N-SH2 domain T52S 0.797 | [2] 0.86

KVDNEDIYESRHEIK [FRK_HUMAN_387]
inactive: SHP2 C-SH2 domain E139D 0.975 | [1] 0.985 | SHP2 N-SH2 domain L43F 0.996 | SHP2 N-SH2 domain T42A 0.798 | SHP2 N-SH2 domain T52S 1.16 | [2] 0.958

TGSSDNEYFAVDFRE [FLT3_HUMAN_589_YA]
inactive: SHP2 C-SH2 domain E139D 0.842 | [1] 0.457 | SHP2 N-SH2 domain L43F 0.58 | SHP2 N-SH2 domain T42A 0.684 | SHP2 N-SH2 domain T52S 0.553 | [2] 0.662

EGDEVEVYSRANDQE [FXR1_HUMAN_68]
inactive: SHP2 C-SH2 domain E139D 1.35 | [1] 0.9 | SHP2 N-SH2 domain L43F 1.16 | SHP2 N-SH2 domain T42A 1.66 | SHP2 N-SH2 domain T52S 1.23 | [2] 1.26

KGVCANRYLAMKEDG [FGF2_HUMAN_215]
inactive: SHP2 C-SH2 domain E139D 1.12 | [1] 1.03 | SHP2 N-SH2 domain L43F 1.14 | SHP2 N-SH2 domain T42A 1.03 | SHP2 N-SH2 domain T52S 1.11 | [2] 1.03

VHNDIFRYQDEVFGG [G3BP1_HUMAN_133]
inactive: SHP2 C-SH2 domain E139D 0.717 | [1] 0.726 | SHP2 N-SH2 domain L43F 0.677 | SHP2 N-SH2 domain T42A 0.617 | SHP2 N-SH2 domain T52S 0.752 | [2] 0.953

NVKSEKVYTRHGVPI [FLOT1_HUMAN_56]
inactive: SHP2 C-SH2 domain E139D 1.05 | [1] 1.02 | SHP2 N-SH2 domain L43F 0.96 | SHP2 N-SH2 domain T42A 1.03 | SHP2 N-SH2 domain T52S 1.16 | [2] 1.09

VDFREAEYDLKWEFP [FLT3_HUMAN_599_YA]
inactive: SHP2 C-SH2 domain E139D 1.09 | [1] 1 | SHP2 N-SH2 domain L43F 1.06 | SHP2 N-SH2 domain T42A 1.2 | SHP2 N-SH2 domain T52S 1.22 | [2] 1.2

SLNQSSGYRYGTDPT [FYN_HUMAN_28]
inactive: SHP2 C-SH2 domain E139D 0.627 | [1] 0.509 | SHP2 N-SH2 domain L43F 0.516 | SHP2 N-SH2 domain T42A 0.492 | SHP2 N-SH2 domain T52S 0.513 | [2] 0.528

KEHNFSFYPTFQSHP [FLT3_HUMAN_726]
inactive: SHP2 C-SH2 domain E139D 1.56 | [1] 1.22 | SHP2 N-SH2 domain L43F 1.07 | SHP2 N-SH2 domain T42A 0.998 | SHP2 N-SH2 domain T52S 1.14 | [2] 1.62

DPFIDLNYMVAMFQA [G3P_HUMAN_42_YA]
inactive: SHP2 C-SH2 domain E139D 1.49 | [1] 1.6 | SHP2 N-SH2 domain L43F 1.44 | SHP2 N-SH2 domain T42A 1.53 | SHP2 N-SH2 domain T52S 1.78 | [2] 1.83

NRMPVAPYWTSPEKM [FGFR1_HUMAN_154]
inactive: SHP2 C-SH2 domain E139D 1.03 | [1] 0.861 | SHP2 N-SH2 domain L43F 0.805 | SHP2 N-SH2 domain T42A 0.89 | SHP2 N-SH2 domain T52S 1.06 | [2] 1.07
